Assay results published in PubChem BioAssay AID1963427 (Molecular Pharmacology Branch, DTP, NCI, 2024).
The source holds more than one record for some entries. The other results are left out here. There may be further records. The values listed for one entry repeat one measurement (runs, samples, wells, individuals or studies). Additions like (4×) give the number of equal values in this list.

Tested on: 317291-083-R-J1-PDC complex spheroid growth
Test: Anticancer human tumor 317291-083-R-J1-PDC patient-derived soft tissue sarcoma cell line growth inhibition [Asc]
Conditions: for viability, T/C: stronger effect = lower value; for IC50: compound alone
Description: Multicellular complex tumor spheroid response to apoptosis pathway targeting inhibitors Alrizomadlin, Pelcitoclax, and Dasminapant in combination with a variety of drugs and investigational agents in selected tumor cell lines
The MDM2 inhibitor alrizomadlin, the Bcl-2/Bcl-xL inhibitor pelcitoclax, and the IAPs inhibitor dasminapant were evaluated both individually and in combination with standard of care and investigational anticancer small molecules within a complex spheroid model of solid tumors. . Complex spheroids include a stromal component modeled by human endothelial cells (HUVEC) and fibroblasts modeled by human mesenchymal stem cells (MSCs). The concentration ranges selected for each drug and investigational agent were based upon clinically achievable concentrations if the clinical Cmax of the agent was known.
Compounds. The drugs and investigational agents: alrizomadlin (APG-115; NSC831270), pelcitoclax (APG-1252; NSC835773), dasminapant (APG-1387;NSC834197), TAK-243 (NSC785004), copanlisib (NSC809693), olaparib (NSC753686), talazoparib (NSC767125), cobimetinib (NSC 768068), eltanexor (KPT-8602, NSC 794443), abemaciclib (NSC 768073), sotorasib (NSC818433), adagrasib (NSC 831453), MRTX-1133 (NSC 836407), Iadademestat (ORY1001, NSC 806812), and RMC-4630 (NSC839698), were obtained from the NCI Developmental Therapeutics Program Chemical Repository. The FDA-approved anticancer drug set is available from the Developmental Therapeutics Program at https://dtp.cancer.gov/organization/dscb/obtaining/available plates.htm. […] The stock solutions were prepared in dimethyl sulfoxide (DMSO, Sigma-Aldrich, St. Louis, MO, cat. D2650) at 800-fold the tested concentration and stored at -70 degrees C prior to their use. All drugs and investigational agents were tested over a range starting from a high concentration at or near the clinical Cmax and decreasing in half-log increments. If the clinical Cmax for an agent had not been determined, the highest concentration tested was 10 microM.
The patient-derived cancer (PDC) cell lines include five colon adenocarcinomas: 186277-243-T-J2-PDC, 616215-338-R-J1-PDC, 439559-082-T-J2-PDC, 463943-066-T-J2-PDC, and 519858-162-T-J1-PDC; three pancreatic carcinomas: 323965-272-R-J2-PDC, 521955-158-R6-J3-PDC, and 521955-158-R2-J5-PDC; two uterine sarcomas: 327498-152-R-J2-PDC and 993429-296-R-J1-PDC; two rhabdomyosarcomas: 755483-174-R-J1-PDC and 772245-204-R-J1-PDC; two soft tissue sarcomas: 126254-015-R-J1-PDC and 494315-158-R-J1-PDC; two malignant fibrous histiocytomas: 317291-083-R-J1-PDC and 596521-263-R-J1-PDC; two breast carcinomas: 171881-019-R-J1-PDC and 885512-296-R-J2-PDC; and one ovarian carcinoma: 6556581-035-R-J-PDC were obtained from the NCI PDMR, (https://pdmr.cancer.gov). The established cell lines HSSY-2 synovial sarcoma (RRID:CVCL 8719), SYO-1 synovial sarcoma (RRID:CVCL_7146), MPNST malignant peripheral neural sheath tumor were obtained from the Sloan Kettering Institute. The following established cell lines were purchased from the American Type Culture Collection (ATCC, Manassas, VA), Sor the received from the NCI repository:, PANC-1 pancreatic carcinoma (CRL-1469, RRID:CVCL_0480), OVCAR-5 ovarian carcinoma (RRID:CVCL_1628), OVCAR-8 ovarian carcinoma (RRID:CVCL_1629), , MCF-7 breast carcinoma (CRL-12584, RRID:CVCL_0031), MDA-MB-231 breast carcinoma (CRL-12532, RRID:CVCL_0062), NCI-H1876 small cell lung carcinoma (CRL-5902, RRID:CVCL_1503), NCI-H510A small cell lung carcinoma (HTB-184, RRID:CVCL_1565), NCI-H1417 (CRL-5869, RRID:CVCL_1469), and NCI-H196 small cell lung carcinoma (CRL-5823, RRID:CVCL_1509). Dr. Peter Houghton (Greehey Children's Cancer Research Institute, University of Texas Health Science Center, San Antonio, TX) provided Rh-18 rhabdomyosarcoma (RRID:CVCL_1659). Pooled donor human umbilical vein endothelial cells (HUVEC, Lonza, cat. CC-2519) and human mesenchymal stem cells (hMSC, Lonza, cat. PT-2501) were purchased from Lonza (Walkersville, MD).
Cell Culture. […]
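Note: compound exposure lasted seven days after spheroids formed for three days.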
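Throughout, for viability, T/C: 100% = DMSO vehicle control wells.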

CCN1C(C(=O)NC23CCC(C(=O)O)(CC2)CC3)C(c2cccc(Cl)c2F)C2(C(=O)Nc3cc(Cl)ccc32)C12CCCCC2 (stereo not drawn) was tested, and the viability, T/C (compound alone 0.00949 µM) was 99.5, 85.7, 127, 100, 93.4, 101, 112, 107, 84.3%, the viability, T/C (compound alone 0.03 µM) was 113, 91.4, 96.9, 95.2, 99.8, 99.3, 109, 112, 86.8% and the viability, T/C (compound alone 0.949 µM) was 78.5, 88.9, 106, 102 (2×), 92, 96.2, 105, 94.8%.

For NC(=O)C(=Cn1cnc(-c2cc(C(F)(F)F)cc(C(F)(F)F)c2)n1)c1cncnc1, the IC50 was 20.1 nM, 27 nM, < 0.949 nM.

With Cc1c(S(C)(=O)=O)c(-c2cc(F)cc(N3CCN(c4ccc(NS(=O)(=O)c5ccc(NC(CCN6CCC(C(=O)OCCCP(=O)(O)O)CC6)CSc6ccccc6)c(S(=O)(=O)C(F)(F)F)c5)cc4)CC3)c2)c(-c2ccc(Cl)cc2)n1C(C)C (stereo not drawn) the viability, T/C (compound alone 0.1 µM) was 74.3, 92, 104 (2×), 99.4, 90.9, 94.3%, the viability, T/C (compound alone 1 µM) was 91.8, 73.1, 103, 84.3, 87.4, 78.9, 79% and the viability, T/C (compound alone 10 µM) was 80.1, 90.1, 105, 112, 86.8, 90.3, 84.4%.

In the case of CNC(C)C(=O)NC1CN(S(=O)(=O)c2cccc(S(=O)(=O)N3CCC4CCC(C(=O)NC(c5ccccc5)c5ccccc5)N4C(=O)C(NC(=O)C(C)NC)C3)c2)CCC2CCC(C(=O)NC(c3ccccc3)c3ccccc3)N2C1=O (stereo not drawn), the viability, T/C (compound alone 0.00316 µM) is reported as 83.6, 93.9, 5.43, 72.6, 93.5, 89, 74.9, 89.1, 72%, the viability, T/C (compound alone 0.01 µM) is reported as 88.7, 84.5, 41.1, 78.2, 108, 92.3, 78.4, 74, 85% and the viability, T/C (compound alone 0.1 µM) is reported as 58.4, 77.2, 46.3, 49.7, 87, 62.4, 60.3, 71.7, 50.9%. The viability, T/C (compound alone 0.316 µM) was 56.6, 43.2, 60, 72, 48.7, 55.9, 48.1, 47.3%, the viability, T/C (compound alone 1 µM) was 43.4, 35.9, 39.2, 40.9, 63, 41.3, 40.3, 48.7, 31.6% and the IC50 (drug combinations, run of 11/15/2022) was < 3.16 nM, 99.8 nM, > 1 µM, 271 nM, 464 nM, 687 nM, 154 nM.
